# From PubChem BioAssay AID1347073 (National Center for Advancing Translational Sciences (NCATS), 2019)
# Screen size: about 45,000 compounds; about 200 (0.44%) were called active. Another 7% or so got no clear call; they are omitted. Calls follow the shape of the dose curve; as a rule, active = well fitted activation curve with a large enough effect; inconclusive = small, poorly fitted or top-dose-only effect; inactive = no such curve, though single readings can be large or run the other way. This is one part of the list.
# Experiment: qHTS of TDP-43 Inhibitors: NCGC Sytravon Library Screen; also: 0% is about no effect; nearly all actives have a fitted effect of over 55% in size
# Details: yeast TDP-43 toxicity rescue, BacTiter-Glo growth, 24 h; series mostly up to 46.1 µM; growth rescue (activation): at the top concentration
# Method in brief: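 TDP-43-expressing yeast, pregrown in raffinose, seeded at OD600 0.02 in galactose medium with compound for 24 hr at 30 deg C. Growth read by BacTiter-Glo luminescence, so rescue of toxicity appears as activation.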
row,Structure (SMILES),growth rescue (activation)
1,NC(=O)c1cccc(-c2csc(C(O)c3ccccc3)n2)c1 (configuration not stated),inactive: 13.1%
2,CCOc1ccc(NC(=S)N2CCC(NC(=O)c3ccccc3C)CC2)cc1,inactive: 14%
3,CCOC(=O)Cn1c(-c2nonc2NC(=O)c2ccccc2F)nc2ccccc21,inactive: -7.21%
4,Cc1nn(-c2ccccc2)c(C)c1CNC(=O)c1ccc(S(=O)(=O)NCc2ccco2)cc1,inactive: 0.649%
5,CC[n+]1c(/C=C2/C=C(C)CC(C)(C)C2)sc2ccc(OC)cc21,inactive: 14.8%
6,C/C(=N\N=C(N)N)c1cccc([N+](=O)[O-])c1,inactive: 0.778%
7,Cc1ccc(NC(=O)CCNC(=O)c2ccccc2Cl)cc1S(=O)(=O)N(C)C,inactive: 2.76%
8,CCN(CC)c1ccc(/C=N/NC(=O)c2cccc(N3CCCC3=O)c2)cc1,inactive: 16.1%
9,CCN(CC)C(=O)c1sc(NC(=O)c2cccs2)c(C#N)c1C,inactive: -0.754%
10,O=C(NCc1ccco1)c1cccn2c(=O)c3c4c(sc3nc12)CCCC4,inactive: -8.59%
11,O=C(COC(=O)c1ccc2ccccc2n1)Nc1cccc(S(=O)(=O)NC2=NCCCCC2)c1,inactive: -7.73%
12,CCCCOc1ccc(S(=O)(=O)NC(=O)C2(C)CCN2C(=O)c2cccc(F)c2)cc1 (configuration not stated),inactive: 18.9%
13,C=CCn1c(SCC(=O)Nc2c(C)n(C)n(-c3ccccc3)c2=O)nnc1-c1cccnc1,inactive: 2.6%
14,COc1cccc(-c2cc3nc(NCc4ccc(C)cc4C)n(C)c(=O)c3s2)c1,inactive: 7.76%
15,O=C(CSc1n[nH]c(-c2cccnc2)n1)Nc1cccc(Cl)c1,inactive: 16.2%
16,COc1ccc(OC)c(NC(=O)C2CCCN2C(=O)NC2CCCCC2)c1 (configuration not stated),inactive: 5%
17,FC(F)(F)c1cccc(Cc2noc(CN3CCCC(CN4CCCC4)C3)n2)c1 (configuration not stated),inactive: -2.73%
18,CC1CN(S(=O)(=O)c2ccc(C(=O)NN3CCN(C)CC3)cc2)CC(C)O1 (configuration not stated),inactive: -12.2%
19,Cc1cccc(C(=O)Nc2ccc(N3CCN(S(C)(=O)=O)CC3)cc2)c1,inactive: 6.4%
20,CC(=O)N=C1SC2CS(=O)(=O)CC2N1Cc1ccc(C)cc1 (configuration not stated),inactive: -3.98%
21,COc1ccc(NC(=O)CSc2ccc(NC(C)=O)cc2)cc1S(=O)(=O)N1CCOCC1,inactive: -8.96%
22,COc1ccc(NC(=S)Nc2ccccn2)cc1,inactive: 16.1%
23,Cc1nn(-c2cc(C(F)(F)F)ccc2Cl)c2nc(C(Cl)(Cl)Cl)[nH]c(=O)c12,inactive: 6.13%
24,CCN(CC)C(=O)Cn1c(=O)n(CCCCCC(=O)Nc2ccccc2)c(=O)c2sccc21,inactive: 3.36%
25,CC(C)(C)NC(=O)COC(=O)c1ccc(Cl)nc1,inactive: 5.42%
26,COc1ccc(Cl)cc1CC1(C)C(=O)Nc2ccc(-c3ccccc3OC)cc21 (configuration not stated),inactive: 1.48%

row,Structure (SMILES),growth rescue (activation)
1,CN(CCOC(=O)c1ccccc1)Cc1ccccc1,inactive: 13.3%
2,CCOC(=O)N1CCN(C(=O)c2cn(C)c3ccc(S(=O)(=O)N4CCC(C)CC4)cc3c2=O)CC1,inactive: -1.45%
3,COc1ccc(NC(=O)C2CCCN(S(=O)(=O)c3ccc(-n4cnnn4)cc3)C2)cc1 (configuration not stated),inactive: 10.7%
4,COc1cc(NS(=O)(=O)c2ccc(NS(=O)(=O)c3ccccc3)cc2)nc(OC)n1,inactive: -3.2%
5,CCOC(=O)c1sc2nc(-c3ccccc3)ccc2c1N,inactive: 4.54%
6,COC(=O)N(NC(=O)C(O)(c1ccccc1)c1ccccc1)c1ccc(C)cc1,inactive: 13.1%
7,CC1CC(C)(C)CC2(C1)NC(=O)N(CC(=O)N1CCN(S(=O)(=O)c3cccc(F)c3)CC1)C2=O (configuration not stated),inactive: -27.9%
8,O=C(c1cccc(C(=O)N(c2ccccn2)C2CCCCC2)c1)N(c1ccccn1)C1CCCCC1,inactive: -0.383%
9,O=C(Nc1ccc(N2CCOCC2)cc1)c1ccc2ncsc2c1,inactive: 31.2%
10,Cc1cccc(C)c1NC(=O)CCS(=O)(=O)c1ccc2c(c1)n(C)c(=O)c(=O)n2C,inactive: -0.0214%
11,Cc1cc(Cl)ccc1OC(C)C(=O)NN=C1CCCCCC1 (configuration not stated),inactive: -10.2%
12,O=C(CS(=O)(=O)c1ccccc1)N1CCc2ccccc21,inactive: 10.2%
13,COc1cc2c(cc1NC(=O)c1ccc(C)c([N+](=O)[O-])c1)oc1ccccc12,inactive: -32.7%
14,O=C(NCCc1ccc(C(F)(F)F)cc1)C1COc2ccccc2O1 (configuration not stated),inactive: 22.1%
15,CNC(=O)COc1ccc(S(=O)(=O)Nc2ccc(OC)cc2)cc1,inactive: -26.1%
16,CN(C(=O)C1CCCCN1S(=O)(=O)c1ccccc1)c1ccccc1 (configuration not stated),inactive: -5.45%
17,COc1ccc(Cl)cc1NC(=S)N(Cc1ccccc1C)CC1CCC(C(=O)O)CC1 (configuration not stated),inactive: 16.2%
18,COc1ccc(NC(=S)N2CCCN(Cc3cccc(Cl)c3)C2)cc1,inactive: 6.03%
19,COc1cc(C2C(C#N)=C(C)NC(C)=C2C#N)cc(OC)c1OC,inactive: 3.22%
20,COc1ccc(C2C(C#N)=C(N)OC3=C2C(=O)CCC3)cc1Cn1nc(C)c([N+](=O)[O-])c1C (configuration not stated),inactive: 3.19%
21,CNS(=O)(=O)c1cccc(C(=O)OCC(=O)Nc2cc(F)ccc2F)c1,inactive: 5.59%
22,CSc1nc(C)c2c(n1)N(c1ccc(F)cc1)CC2,inactive: 42%
23,CC(=O)Nc1ccccc1C(=O)C(=O)Nc1cccc(C(=O)NCc2ccccc2)c1,inactive: 12.3%
24,CC(NC(=O)/C=C/c1ccco1)c1nc2ccccc2n1Cc1cccc(Cl)c1 (configuration not stated),inactive: -8.8%
25,COc1ccc(NC(=O)Nc2ccc(CC(=O)O)cc2)cc1,inactive: -6.14%
26,Cc1ccc(C(=O)N/N=C2\CC3CC=CC23)c(C)c1 (configuration not stated),inactive: 2.44%

row,Structure (SMILES),growth rescue (activation)
1,Cc1sc(NC(=O)c2ccco2)c(C(=O)c2ccc(Cl)cc2)c1C,inactive: 10.5%
2,CN(C)CCn1nnc2c(=O)oc3ccccc3c21,inactive: 13.2%
3,Cn1c(SCC(=O)Nc2ccccc2)nnc1C(F)(F)F,inactive: 5.44%
4,O=C(NCc1ccc(F)cc1)C(c1cccnc1)N(C(=O)c1csnn1)c1ccccc1 (configuration not stated),inactive: -9.02%
5,CCOC(=O)CC1C(=O)NCCN1C(=O)COc1ccc(C(C)(C)C)cc1 (configuration not stated),inactive: 2.59%
6,Nc1nc(O)c(Sc2ccccc2[N+](=O)[O-])c(=O)[nH]1,inactive: 2.63%
7,COc1ccc(CCC(=O)NCCCNC(=O)CCc2ccc(OC)cc2)cc1,inactive: 14.7%
8,COc1cc(Br)cc(C=Nc2cccc(C(F)(F)F)c2)c1O,inactive: 20.4%
9,NC(=O)c1ccccc1OCC(=O)N1CCc2ccccc2C1,inactive: 3.84%
10,O=[N+]([O-])c1ccc(N2CCN(S(=O)(=O)c3ccc4ccccc4c3)CC2)cc1NCC1CCCO1 (configuration not stated),inactive: 5.19%
11,NC(Cc1ccc(C(F)(F)F)cc1)c1csc(NC(=O)NCCc2ccccc2)n1 (configuration not stated),inactive: 12.7%
12,Cc1ccc(S(=O)(=O)Nc2cnn(-c3ccccc3)c(=O)c2Cl)cc1,inactive: -21.9%
13,CCOC(=O)C1CCN(C2=C(NS(=O)(=O)c3ccc(Cl)cc3)C(=O)c3ccccc3C2=O)CC1,inactive: -17.1%
14,CC1(C)CC(=O)c2c(oc3ccc(NS(=O)(=O)c4cccc5cccnc45)cc23)C1,inactive: 18.1%
15,Cc1nc(Nc2ccc(C(=O)O)cc2)nc(Nc2ccc(C(=O)O)cc2)c1[N+](=O)[O-],inactive: 6.53%
16,O=C(CSCc1ccc(Cl)cc1)Nc1cc([N+](=O)[O-])ccc1O,inactive: -35.3%
17,COC(CNC(=O)c1ccc2c(c1)ncn2-c1cc(C)cc(C)c1)OC,inactive: 2.65%
18,O=[N+]([O-])c1ccc(Nc2ccccn2)c([N+](=O)[O-])c1,inactive: 7.32%
19,O=C(CO/N=C/c1ccc(OC(F)F)cc1)NC1CCCC1,inactive: 5.13%
20,Cc1cc2nc(CSc3ccc(Cl)cc3)cc(=O)n2[nH]1,inactive: 0.556%
21,CN(c1ccccc1C(=O)Nc1ccc(F)c(Cl)c1)S(C)(=O)=O,inactive: 11.2%
22,Cc1cc(NC(=O)CSc2nnnn2-c2ccc(C)c(Cl)c2)no1,inactive: -9.81%
23,CCn1c(SCC(=O)NCCc2ccccc2)nnc1C(C)C,inactive: -1.26%
24,O=c1oc2cc(O[C@@H]3OC[C@@H](O)[C@H](O)[C@H]3O)ccc2c2ccccc12,inactive: 8.99%
25,CC1CN(CC(=O)Nc2ccccc2Sc2ccccc2)CC(C)O1 (configuration not stated),inactive: -7.59%
26,CCCC(C)NC(=O)COC(=O)c1ccc2c(c1)C(=O)N(Cc1ccco1)C2=O (configuration not stated),inactive: 2.3%

row,Structure (SMILES),growth rescue (activation)
1,COC(=O)c1cc2sc(C)cc2n1Cc1nc(-c2cccc(Br)c2)oc1C,inactive: 6.69%
2,O=C(O)c1ccc(NC(=S)NC2CCCCC2)cc1,inactive: 23.1%
3,CCCNC(=O)COC(=O)c1ccccc1C(=O)c1ccc(Cl)c([N+](=O)[O-])c1,inactive: -19.9%
4,CCN(CC)S(=O)(=O)c1ccc(O)c(NC(=O)c2cc(-c3cc(OC)c(OC)c(OC)c3)nc3ccccc23)c1,inactive: 16.3%
5,O=C(NCc1ccccn1)c1ccc(CS(=O)(=O)Cc2ccc(Cl)cc2)o1,inactive: 25.9%
6,Cc1nc(C)n(CCNS(=O)(=O)c2ccccc2)n1,inactive: -8.05%
7,COc1cc(NC(=O)CN2C(=O)C(c3ccc(C)cc3)=NC23CCCCCC3)cc(OC)c1,inactive: 10.5%
8,CCCCN=C1SC(C(=O)Nc2sc3c(c2C(=O)OC)CCC3)C(N)=C1C(=O)N1CCOCC1 (configuration not stated),inactive: -21.7%
9,COc1cc(C(=O)Oc2ccccc2/C=N/NC(=O)c2ccc(Cl)cc2Cl)cc(OC)c1OC,inactive: -18.9%
10,O=C(O)CCn1cc(/C=C/C(=O)c2ccc(Cl)cc2)c(-c2cccc(Br)c2)n1,inactive: 15%
11,CC1(C)N=C(c2ccc(F)cc2)C(=O)N1CC(=O)Nc1ccccc1Cl,inactive: 14.9%
12,O=c1cc(CO)oc(C(Nc2ccccn2)c2ccccc2Cl)c1O (configuration not stated),inactive: 2.89%
13,Cc1ccc(Cn2c3ccccc3c3cnn(CC(=O)N4CCCCCC4)c(=O)c32)cc1,inactive: 3.59%
14,COCCn1c(SCC(=O)N2CC(=O)Nc3ccccc32)nc2ccccc2c1=O,inactive: 12.5%
15,CC(=O)NCCNc1ccc([N+](=O)[O-])cn1,inactive: 14.8%
16,CCc1ccc2c(CN(C)Cc3ccc(OC(F)F)c(OC)c3)cc(=O)oc2c1,inactive: 3.52%
17,CCSc1nnc(NC(=O)Nc2cccc(C)c2)s1,inactive: 2.05%
18,Cc1ccc(S(=O)(=O)n2nc(C)c(Br)c2C)c(C)c1C,inactive: 25.7%
19,COc1ccc(N(C(C)C(=O)Nc2ccc(S(=O)(=O)N3CCCCC3)cc2)S(C)(=O)=O)cc1 (configuration not stated),inactive: 2.94%
20,CCN(CCn1cccn1)C(=O)CCc1nnc(CCCc2ccccc2)o1,inactive: 4.58%
21,CCCc1nnc(NC(=O)CCS(=O)(=O)Cc2ccccc2)s1,inactive: -3.05%
22,O=C(CON=C1c2ccccc2-c2ccccc21)NC12CC3CC(CC(C3)C1)C2,inactive: -9.46%
23,COc1ccc(-n2c(O)c(/C=N/NS(=O)(=O)c3cccc([N+](=O)[O-])c3)c3ccccc3c2=O)cc1OC,inactive: -8.92%
24,O=C(c1cc2ccccc2oc1=O)N(Cc1cccc(Br)c1)C1CCS(=O)(=O)C1 (configuration not stated),inactive: 2.81%
